Results on 86 sequences are retold here after the supplement of paper PMC3334620.

Whole data set: some 33,000 sequences, median “E-score (-0.5 to 0.5)” near -0.032, cut for the highest 2% near 0.36. Some of the results follow.

This experiment concerns the target T1, Sko1 (UniProt Q02100).
T1 sequence: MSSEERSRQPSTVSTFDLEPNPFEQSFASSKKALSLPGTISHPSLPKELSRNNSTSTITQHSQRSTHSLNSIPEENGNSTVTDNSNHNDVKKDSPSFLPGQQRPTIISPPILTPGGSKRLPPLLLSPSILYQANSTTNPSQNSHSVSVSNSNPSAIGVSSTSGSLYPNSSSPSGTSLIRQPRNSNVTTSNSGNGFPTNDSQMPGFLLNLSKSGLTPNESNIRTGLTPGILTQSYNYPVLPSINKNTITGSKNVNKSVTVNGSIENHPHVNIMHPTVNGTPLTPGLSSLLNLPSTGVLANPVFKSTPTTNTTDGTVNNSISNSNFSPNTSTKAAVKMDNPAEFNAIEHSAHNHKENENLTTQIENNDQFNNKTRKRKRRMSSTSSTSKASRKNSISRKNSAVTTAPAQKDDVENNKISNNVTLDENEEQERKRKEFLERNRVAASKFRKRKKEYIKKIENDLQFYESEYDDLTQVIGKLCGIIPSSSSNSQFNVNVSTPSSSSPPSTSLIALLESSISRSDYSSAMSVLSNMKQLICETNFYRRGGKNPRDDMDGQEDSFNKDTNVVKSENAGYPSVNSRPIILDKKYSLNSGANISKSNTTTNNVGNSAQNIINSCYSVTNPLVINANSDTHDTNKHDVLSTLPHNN
Description: PBM E-score (8-mer binding enrichment) (E-score (-0.5 to 0.5)); higher = stronger / more preferred TF binding; most listed sequences are background and not binding sites. Particulars: protein concentration: 200 nM; construct: GST-full length. The procedure: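 Universal 'all 10-mer' protein binding microarrays (Agilent AMADID 015681) probed with GST-tagged S. cerevisiae TFs (full-length or DBD) made by in vitro transcription/translation (PURExpress), about 100-200 nM. Bound TF was detected with fluorescent anti-GST. Each ungapped 8-mer (which stands for itself and its reverse complement) is scored by the PBM enrichment score (E-score), a modified Wilcoxon-Mann-Whitney statistic from -0.5 to +0.5, computed with the Universal PBM Analysis Suite. Scale: above 0.35 generally sequence-specific binding.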
For the sequence AAGGCATC, the “PBM E-score” value is -0.187.

On to GTGTAAAC, for which the “PBM E-score” value was 0.112.

Regarding ATGTATCG, the “PBM E-score” value is 0.223.

Regarding ATCAGGTG, the “PBM E-score” value was -0.0909. Next, ACCGGGGA: -0.137; ACGTTTGG: 0.296; ACACTGCA: -0.0506.

TGAGATCA: the “PBM E-score” value worked out at 0.175. As to AGCCAACC, the “PBM E-score” value is -0.0256. For AAGACGAC, the “PBM E-score” value turned out to be 0.0714. With CTTCTTCC, the “PBM E-score” value was -0.104. In the case of ATTTAACA, the “PBM E-score” value stood at 0.167. As for AGAAAGGA, the “PBM E-score” value is -0.0728. Next, ACCAGAAC: -0.0151.

Take AATCAAAT: the “PBM E-score” value amounted to 0.0198. With ATACTCAT, the “PBM E-score” value was determined as 0.209.

As to CGCGTCAG, the “PBM E-score” value was determined as 0.222. With GAGAGGAA, the “PBM E-score” value is -0.15.

Turning to CGGAAAAA, the “PBM E-score” value turned out to be 0.0964. As to AACTGTGG, the “PBM E-score” value is -0.0872. CCAATTCC: the “PBM E-score” value was -0.0935. As for ATTATCGC, the “PBM E-score” value is 0.128. On to AGGCAGGC, for which the “PBM E-score” value was -0.241. On to ATGGACAA, for which the “PBM E-score” value came to 0.0478. Regarding AGGGTATG, the “PBM E-score” value turned out to be 0.0638. Next, CATTTTGG: -0.0106.

For GATACACA, the “PBM E-score” value was -0.124.

On to CTAAATCA, for which the “PBM E-score” value came to 0.0953. Regarding AGAAATAG, the “PBM E-score” value stood at 0.173. As for GTACCCGA, the “PBM E-score” value is -0.169. For CTCTCCGA, the “PBM E-score” value is -0.196. Regarding ACACTGCT, the “PBM E-score” value was -0.111. ACTGAGAG: the “PBM E-score” value is -0.173. Consider AGCGATTG, for which the “PBM E-score” value was -0.0784.

Regarding TGCCAGAA, the “PBM E-score” value was -0.224. For GAGAAGAA, the “PBM E-score” value was -0.0866.

On to TACTTGCA, for which the “PBM E-score” value was found to be 0.0642.

On to ACGGTACG, for which the “PBM E-score” value turned out to be 0.256. For ACTTCTAA, the “PBM E-score” value was -0.0244.

GCCCGTCC: the “PBM E-score” value was -0.338. Turning to GTGGCATA, the “PBM E-score” value is -0.155.

On to GGGTCTGA, for which the “PBM E-score” value was -0.0894. Next, CCTACATA: -0.00816. On to AGTCGAAA, for which the “PBM E-score” value was -0.00491. For AGGTTCTG, the “PBM E-score” value was -0.11.

Consider TAGTTTCA, for which the “PBM E-score” value was determined as 0.153. Turning to GTAAATAA, the “PBM E-score” value amounted to 0.235.

For GACAGTCA, the “PBM E-score” value was -0.0745. For AGTAGCTC, the “PBM E-score” value was -0.0661. The result for ATATGCCG reads 0.0332.

CACCTCGG: the “PBM E-score” value was -0.183. As for TACATGAA, the “PBM E-score” value came out at 0.0954. On to GGAACTCC, for which the “PBM E-score” value is -0.258. As for ACTGGACT, the “PBM E-score” value is -0.0619.

For the sequence GTCCTGTA, the “PBM E-score” value is -0.0116. Regarding GACATAAA, the “PBM E-score” value came out at 0.251. For the sequence GTATCCTA, the “PBM E-score” value was -0.0829. AGGACATA: the “PBM E-score” value was determined as 0.0205. With CACAGACG, the “PBM E-score” value turned out to be 0.0844.

Regarding CCGGGTGA, the “PBM E-score” value was -0.164. Consider CTCGGCAG, for which the “PBM E-score” value was -0.195. AAGTGCGT: the “PBM E-score” value stood at 0.272. For GCATAAAA, the “PBM E-score” value is 0.0687. As for AAGCACCT, the “PBM E-score” value was -0.161.

Take ATATTGGC: the “PBM E-score” value came to 0.0765. Turning to CACCTGCG, the “PBM E-score” value was -0.158. CGTCCCGC: the “PBM E-score” value was -0.0792. For AACGTTCG, the “PBM E-score” value is 0.141. As for ACTCGTGA, the “PBM E-score” value amounted to 0.142.

On to AAGCTTTG, for which the “PBM E-score” value is -0.16. In the case of AAGATAGC, the “PBM E-score” value was -0.0196. For the sequence ATGTGAGC, the “PBM E-score” value was -0.00412. Turning to TCAGGTCA, the “PBM E-score” value was -0.00471. With ACCGTCCC, the “PBM E-score” value is -0.249.

Turning to CTTCTAGA, the “PBM E-score” value worked out at 0.00173. GAAAGAGA: the “PBM E-score” value was 0.0191. For AACTTCCG, the “PBM E-score” value was -0.0705.

For ATCCGCTG, the “PBM E-score” value was -0.251.

Regarding ATGCAGTA, the “PBM E-score” value is 0.0493. As to ACTTTAAT, the “PBM E-score” value came to 0.141. With ACGGAGCG, the “PBM E-score” value is -0.0203. As to AACAGAAT, the “PBM E-score” value was 0.0854. As for GTATTCAA, the “PBM E-score” value worked out at 0.182.

Turning to CCCTGTCA, the “PBM E-score” value is -0.188. For the sequence AATGCAAT, the “PBM E-score” value was -0.0187. Regarding GGTTGTTA, the “PBM E-score” value was 0.119.
